The subject of the experiment is NCI-H322M lung. The experiment in a line: DTP human tumour cell line panel, 48 h.

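Each compound was tested at five concentrations against cells in 96-well plates for 48 hours. At the GI50, growth is halved. TGI marks complete inhibition of growth.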

One may read the GI50 as the concentration giving 50% growth inhibition. By TGI is commonly meant the concentration at which net growth stops.

In the case of `CCOC(=O)c1c(NCC(=O)Nc2cccc([N+](=O)[O-])c2)sc2c1CCCC2`, the GI50 was 1.45 µM and the concentration for total growth inhibition (TGI) came to 4.03 µM.
Take `Cn1cc(-c2nn3cc(-c4ccncc4)nc3s2)c2cc(Cl)ccc21`: the GI50 was 7.94 µM and the TGI was found to be 25.6 µM.

Values taken from PubChem BioAssay (NCI).
